Data from PubChem BioAssay AID463173 (ICCB-Longwood Screening Facility, Harvard Medical School, 2010).
Among all 52,000 compounds or so, about 1,700 (3.3%) were called active. Rule as the data show it: active = survival mostly below about 52% (no sharp cut-off); inactive = mostly above about 56%. The list shows a part of the results.

Test system: Wild type
Assay: growth inhibition of S. aureus wild type versus tarO mutant, primary screen, teichoic acid synthesis inhibitors, RN4220, OD600 (AID 463173)
Settings: S. aureus RN4220 wild type/DeltatarO growth, OD600, 18 h, active compounds read low, screened at 18.75 µg/mL (by protocol)

Compound | survival
Cn1ncc(C(=O)N2CCN(c3ccc(F)cc3)CC2)c1C1CCN(C(=O)OC(C)(C)C)CC1 | inactive: 66%
O=C(Cc1c(F)cccc1Cl)NCCCn1ccnc1 | inactive: 109%
CCCn1c(-c2cccc(Br)c2)nc2ccccc21 | active: 3%
Cc1cc(C)cc(NC(=O)C2CCCN2S(=O)(=O)c2cccc3nsnc23)c1 (stereo unspecified) | inactive: 71%
CC(=O)Nc1cc(-c2nc3ccccc3s2)ccc1C | inactive: 91%
Cc1ccc(C2=CC(c3c(F)cccc3Cl)n3ncnc3N2)cc1C (stereo unspecified) | inactive: 57%
O=C(CSc1nnc2[nH]c(=O)cc(-c3ccccc3)n12)Nc1ccc(F)cc1F | inactive: 94%
CCn1c(-c2ccc(S(=O)(=O)N3CCOCC3)cc2)csc1=Nc1ccc(C)c(Cl)c1 | inactive: 71%
CCOC(=O)c1ccc(CN(Cc2ccccc2C)S(=O)(=O)c2ccc(C(C)(C)C)cc2)cc1 | inactive: 84%
COc1cccc(C2C(C(=O)Nc3ccccc3)=C(C)Nc3nc(-c4ccccc4)nn32)c1OC (stereo unspecified) | inactive: 107%
C=CCNCc1cc2cc(C)cc(C)c2[nH]c1=O | inactive: 101%
Cc1ccccc1NC(=O)C(C)Sc1nnc(-c2ccccc2C)o1 (stereo unspecified) | inactive: 100%
Cc1ccc(C(=O)n2nc(C)c(S(=O)(=O)N3CCCCCC3)c2C)cc1 | inactive: 81%
COc1ccc(C)cc1NC(=O)c1ccc2c(c1)CCN2S(=O)(=O)c1ccc(Cl)cc1 | inactive: 87%
Cc1ccc(C)c(S(=O)(=O)n2nnc3ccccc32)c1 | inactive: 104%
O=C(Nc1ncn[nH]1)C(F)(F)C(F)F | inactive: 108%
Cc1ccc(C)c(CN2CCC(CNC(=O)c3cc4ccc5cccnc5c4[nH]3)CC2)c1 | inactive: 84%
COc1ccc(CNc2nc3c(c(=O)n(C)c(=O)n3C)n2Cc2ccccc2Cl)cc1 | inactive: 83%
Cc1cccc(-c2noc(-c3ccc(N4CCN(C)CC4)c([N+](=O)[O-])c3)n2)c1 | active: -3%
CCOc1cc(S(=O)(=O)N(CC)CC)c(OCC)cc1-n1cnnn1 | inactive: 99%
Cc1ccc(Cn2c(C)c(CNCCCc3ccccc3)c(C(=O)O)c2C)cc1 | inactive: 115%
CCCc1nc(C(C#N)c2ccc(F)cc2)c2nnn(Cc3ccccc3)c2n1 (stereo unspecified) | inactive: 109%
CC1CCN(S(=O)(=O)c2ccc3c(c2)CCC(=O)N3CC(=O)Nc2cccc(C#N)c2)CC1 | inactive: 70%

Compound | survival
Cc1ccc2nc(Cl)c(CO)cc2c1 | inactive: 111%
CCCCNC(=O)CSc1nnc(C)c2c(C)n(-c3ccccc3)nc12 | inactive: 70%
Cc1ccc(C2=NN(CC(=O)NCCN(CC(C)C)CC(C)C)C(=O)CC2)cc1 | inactive: 129%
CC(C)NC(=O)C1CCN(c2nc3ccccc3nc2C(F)(F)F)CC1 | inactive: 95%
Cc1ccc(-c2noc(CNC(=O)c3ccccc3)n2)cc1 | inactive: 83%
CCOC(=O)C1Cc2ccccc2CN1 (stereo unspecified) | inactive: 100%
CCC1CN(C(=O)N2CCC(C(=O)NCc3ccccc3C)CC2)c2ccccc2O1 (stereo unspecified) | inactive: 87%
Cc1ccc(-c2cc3c(n2-c2ccc(C)cc2)CC(C)(C)CC3=O)cc1 | inactive: 69%
O=C(NCc1ccccc1)c1ccc(CSc2nc3cccnc3n2Cc2ccccc2F)cc1 | inactive: 95%
O=C(NCCOCCn1c(=O)oc2ccccc21)Nc1ccc(F)cc1 | inactive: 88%
COc1ccc(OCC(=O)Nc2cccc(-c3nc4ccccc4s3)c2C)cc1 | inactive: 118%
COc1ccccc1OCC(=O)Nc1nc(-c2ccc(Br)cc2)ns1 | inactive: 79%
Cc1nc(N2CCCC2)ncc1C(=O)Nc1ccc(F)cc1F | inactive: 138%
Cc1cc2c(cc1S(=O)(=O)N(CCN(C)C)Cc1ccco1)OCC(=O)N2 | inactive: 88%
Cc1ccc(S(=O)(=O)c2cn(C)c3cc(N4CCCC(C)C4)c(F)cc3c2=O)c(C)c1 (stereo unspecified) | inactive: 81%
CC(C)N(Cc1ccccc1)C(=O)CCS(=O)(=O)c1ccc2c(c1)oc(=O)n2C | inactive: 124%
Cc1ccc(NC(=O)C2CCN(S(=O)(=O)c3c(C)noc3/C=C/c3ccco3)CC2)cc1C | inactive: 79%
Cc1ccc(CN2CCc3nc(N4CCN(C)CC4)ncc3C2)s1 | inactive: 99%
CC(C)(C)CC(=O)NC1CC(=O)N(c2ccc3c(c2)OCCO3)C1 (stereo unspecified) | inactive: 124%
O=C1OC(Nc2ccc3ncccc3c2)c2ccccc21 (stereo unspecified) | inactive: 85%
O=C(c1ccc2c(c1)N(Cc1ccccc1F)C(=O)c1ccccc1S2=O)N1CCOCC1 (stereo unspecified) | inactive: 86%
Cc1c(Cl)cccc1NC(=O)Cn1cnc2nc3c(cc2c1=O)CCCC3 | inactive: 131%
Cc1ccc(-n2ncc3c(N4CCC(Cc5ccccc5)CC4)ncnc32)cc1 | inactive: 70%

Compound | survival
O=C(NCC1CCCO1)c1c[nH]c2ccc(S(=O)(=O)Nc3cccc(C(F)(F)F)c3)cc2c1=O (stereo unspecified) | inactive: 74%
CCc1ccc(C(=O)c2cn(CC(=O)Nc3ccc(C)c(C)c3)c3ccccc3c2=O)cc1 | inactive: 135%
Cc1ccc2c(c1)cc1c(=O)n(CC(=O)N3CCCCC3)nc(C)n12 | inactive: 79%
Cc1cccc(N(C)C(=O)CSc2nc3ncccc3o2)c1 | inactive: 63%
CN(Cc1ccccc1)S(=O)(=O)c1nnc(NC(=O)c2ccccc2)s1 | inactive: 35%
COc1ccc2c(c1)c1c(c(=O)n(-c3ccccc3)c(=O)n1CC(=O)Nc1ccc(C)c(C)c1)n2C | inactive: 82%
N#Cc1ccc(CSc2nc3c(c(=O)[nH]2)CCCC3)cc1 | inactive: 94%
CC(C)C1CC(c2csc(N)n2)CCO1 (stereo unspecified) | inactive: 105%
Cc1cccc(N(C)C(=O)CCNS(=O)(=O)c2ccc3c(c2)CCN3C(=O)C2CC2)c1 | inactive: 78%
Cc1sc2nc(SCC(=O)N(CCO)CCO)nc(N)c2c1C | inactive: 99%
COC(=O)CCn1cnc2onc(-c3cc(F)cc(F)c3)c2c1=O | inactive: 78%
Cc1ccc(C)c(CS(=O)(=O)c2cn(CC(=O)N(C(C)C)C(C)C)c3ccccc23)c1 | inactive: 77%
CC(C)Sc1ncc(Cl)c(C(=O)Nc2ccc(S(=O)(=O)N(C)c3ccccc3)cc2)n1 | inactive: 78%
Fc1ccc2ncc3c(-c4ccccc4)n[nH]c3c2c1 | inactive: 84%
Cn1ncc2c(Nc3cccc(F)c3)ncnc21 | inactive: 127%
O=C(Nc1c(C(=O)Nc2ccccc2F)oc2ccccc12)c1cc2ccccc2o1 | inactive: 42%
COc1cc(NC(=O)CN2CCN(CC(=O)Nc3ccc(F)cc3)CC2)cc(OC)c1 | inactive: 67%
COc1cc(C(CC(=O)NCCC(C)C)N2Cc3ccccc3C2=O)cc(OC)c1OC (stereo unspecified) | inactive: 128%
CCN(C(=O)CCc1nc(-c2ccc(C)cc2)no1)c1cccc(Cl)c1 | active: -1%
Cc1ccc(-c2nc(NC(=O)CSc3ccc4ccccc4n3)ns2)cc1 | inactive: 83%
C1Cc2nn3c(c2C1)n1nc2c(c1n1nc4c(c31)CCC4)CCC2 | inactive: 95%
CCN1CC=C2C(C#N)=C(N)C(C#N)(C#N)C(c3ccc(OC)c4ccccc34)C2C1 (stereo unspecified) | inactive: 114%
Cc1ccccc1OCC(=O)Nc1ccc(C(=O)OCc2cc(=O)n3ccsc3n2)cc1 | inactive: 128%

Compound | survival
Cc1ccccc1NC(=O)c1nc(S(C)(=O)=O)ncc1N(Cc1ccco1)Cc1sccc1C | inactive: 81%
CCN(CC)C(=O)c1sc(NC(C)=O)c(C(=O)OC)c1C | inactive: 108%
COC(=O)c1cc2sccc2n1CC(=O)Nc1ccc(C)cc1C | inactive: 81%
COc1cc2c(cc1OC)C(COc1ccc3c(C)cc(=O)oc3c1)N(C(=O)Cc1ccccc1)CC2 (stereo unspecified) | inactive: 94%
Cc1ccc(S(=O)(=O)c2cn(Cc3ccccc3)c3cc(N4CCCC4)c(F)cc3c2=O)cc1 | inactive: 68%
Cc1cc(C)c(Cn2c3ccccc3c3cnn(CC(=O)NCCC4=CCCCC4)c(=O)c32)c(C)c1 | inactive: 72%
COc1cccc(CNC(=O)c2ccc3nc(-c4ccccc4)c(-c4ccccc4)nc3c2)c1OC | inactive: 71%
CCOc1ccccc1C(=O)NC1(C(F)(F)F)C(=O)Nc2c1c(=O)[nH]c(=O)n2-c1ccccc1 (stereo unspecified) | inactive: 68%
CCC(C)Sc1oc(-c2ccco2)nc1S(=O)(=O)c1ccc(Cl)cc1 (stereo unspecified) | inactive: 25%
Cc1sc2nc(SCC(=O)NCCCN3CCOCC3)[nH]c(=O)c2c1C | inactive: 106%
COc1ccc(Nc2nnc(-c3ccc(C)c(S(=O)(=O)NCc4nc5ccccc5[nH]4)c3)c3ccccc23)cc1 | inactive: 131%
CN(C)CC[n+]1ccc(C(=O)c2ccccc2)cc1 | inactive: 109%
Clc1ccc(-c2csc(-c3nc(-c4ccc(Br)s4)cs3)n2)cc1 | inactive: 69%
O=C(NCc1ccc(Cl)cc1)c1ccc2c(c1)NC(=O)C(CS(=O)(=O)Cc1ccc(F)cc1Cl)N2 (stereo unspecified) | inactive: 83%
Cc1ccc(NC(=O)Cn2nnc(C(=O)NCCc3ccccc3)c2N)cc1 | inactive: 79%
COc1ccc(C)cc1NC(=O)c1cc2ccccn2n1 | inactive: 71%
O=C(CCC1CCCC1)N1CCN(C2CCCCC2)CC1 | inactive: 104%
O=C(CCN1CCN(CCO)CC1)Nc1ccc(Br)cc1 | inactive: 70%
CCc1ccc(NC(=O)C2CCCN(S(=O)(=O)c3cccc4nsnc34)C2)cc1 (stereo unspecified) | inactive: 76%
Cc1cccc(CN2C(=O)c3ccccc3S(=O)(=O)c3ccc(C(=O)N(C)Cc4ccccc4)cc32)c1 | inactive: 94%
Cc1ccc(Nc2c(-c3ccc(N4CCOCC4)cc3)nc3cccc(C)n23)cc1 | inactive: 87%
O=C1CC(c2nnc(Cc3c(F)cccc3Cl)o2)CN1c1ccccc1 (stereo unspecified) | inactive: 102%
